# Measurements reported in patent US20030162712A1 (IMMUNEX, published 2003).
# T1: human angiopoietin-2 (human, UniProt O15123 68-496, limits assumed)
# T1 construct: Bought preparation; two N-termini (Asp68 major, Tyr19 minor) are stated, the C-terminal limit is not; also called Ang2; human Ang2
# T1 sequence (looked up): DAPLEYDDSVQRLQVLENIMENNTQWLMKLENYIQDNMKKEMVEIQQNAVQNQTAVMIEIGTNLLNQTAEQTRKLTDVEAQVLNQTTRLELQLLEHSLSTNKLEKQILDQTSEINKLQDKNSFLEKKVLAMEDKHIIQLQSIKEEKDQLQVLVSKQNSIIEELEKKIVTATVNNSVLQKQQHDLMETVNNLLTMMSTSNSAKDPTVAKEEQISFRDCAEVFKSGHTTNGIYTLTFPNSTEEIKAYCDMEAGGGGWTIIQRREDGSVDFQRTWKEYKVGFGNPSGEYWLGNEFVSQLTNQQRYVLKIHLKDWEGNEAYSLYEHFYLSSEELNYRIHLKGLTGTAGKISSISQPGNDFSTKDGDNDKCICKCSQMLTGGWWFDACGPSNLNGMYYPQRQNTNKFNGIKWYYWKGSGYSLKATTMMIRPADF
# B1: Tek472/Fc (Fc fusion)
# chain: AMDLILINSLPLVSDAETSLTCIASGWRPHEPITIGRDFEALMNQHQDPLEVTQDVTREWAKKVVWKREKASKINGAYFCEGRVRGEAIRIRTMKMRQQASFLPATLTMTVDKGDNVNISFKKVLIKEEDAVIYKNGSFIHSVPRHEVPDILEVHLPHAQPQDAGVYSARYIGGNLFTSAFTRLIVRRCEAQKWGPECNHLCTACMNNGVCHEDTGECICPPGFMGRTCEKACELHTFGRTCKERCSGQEGCKSYVFCLPDPYGCSCATGWKGLQCNEACHPGFYGPDCKLRCSCNNGEMCDRFQGCLCSPGWQGLQCEREGIPRMTPKIVDLPDHIEVNSGKFNPICKASGWPLPTNEEMTLVKPDGTVLHPKDFNHTDHFSVAIFTIHRILPPDSGVWVCSVNTVAGMVEKPFNISVKVLPKPLNAPNVIDTGHNFAVINISSEPYFG[… human IgG1 Fc …]
# notes: Expressed in CHO cells; also called human Tek472/Fc; recombinant human Tek472/Fc
# Biological target: T1, human angiopoietin-2
# Test: solid-phase plate binding assay, time-resolved fluorescence, Ang2 coated
# Method: Both Tek745/Fc and Tek472/Fc were examined for the ability to bind the human Tek ligand angiopoietin 2 (Ang2), using a solid-phase plate binding assay based on time-resolved fluorescence.
# Low fluorescence 8×12 strip microtiter plate wells (Perkin-Wallac, Ackron, Ohio) were incubated with human Ang2 (R&D systems) at 500 ng/ml (100 μl) overnight at 2-8° C. The wells were then blocked by the addition of 100 μl of 1% BSA/PBS solution for 1 hour at room temperature. Following a 4×PBS-T (PBS-Tween 20 0.05%) wash, samples containing Tek745/Fc, Tek472/Fc, or TNFR/Fc (control/Fc) were titrated in diluent (1% BSA/PBS), in duplicate, beginning at 30 μg/ml in 3-fold dilutions. The samples were allowed to bind for 1 hour at room temperature with gentle agitation and then the unbound material was washed away 4×with PBS-T. Bound Tek/Fc was detected by adding goat anti human IgG-Europium conjugate (Perkin-Wallac), diluted to 100 ng/ml in assay buffer, to the wells and incubating for 30 minutes at room temperature. Unbound goat anti-human IgG-Europium was removed by a 4×PBS-T wash. […] Binding was determined by reading the fluorescence emitted from each well on a Victor II Multilabel counter equipped with software and light excitation/emission devices to measure Europium-derived fluorescence.
binder,measurement,value
B1,fold better binding than Tek745/Fc,21 fold
same,"fold better binding than Tek745/Fc, based on mass concentration",> 20 fold
